# Measurements published in PubChem BioAssay AID463254 (National Center for Advancing Translational Sciences (NCATS), 2010).
# “And” between values parts separate entries of the source, which are not always exact repeats. Equal entries are not always repeated. In all, about 330,000 compounds went through this assay and about 40 (0.01%) were called active. This list was built around the results that the source calls inconclusive (neither active nor inactive); the mix of calls is not that of the screen. Calls come from the whole dose curve; as a rule, active = well fitted inhibition curve with a large enough effect; inconclusive = small, poorly fitted or top-dose-only effect, or effect the other way; inactive = flat fitted curve, though single readings scatter. A potency beside an inconclusive call is a rough fit, not a confirmed value.
# Target: Ubiquitin carboxyl-terminal hydrolase 2 (Homo sapiens) (UniProt O75604)
# UniProt O75604, sequence (O75604 whole entry, looked up): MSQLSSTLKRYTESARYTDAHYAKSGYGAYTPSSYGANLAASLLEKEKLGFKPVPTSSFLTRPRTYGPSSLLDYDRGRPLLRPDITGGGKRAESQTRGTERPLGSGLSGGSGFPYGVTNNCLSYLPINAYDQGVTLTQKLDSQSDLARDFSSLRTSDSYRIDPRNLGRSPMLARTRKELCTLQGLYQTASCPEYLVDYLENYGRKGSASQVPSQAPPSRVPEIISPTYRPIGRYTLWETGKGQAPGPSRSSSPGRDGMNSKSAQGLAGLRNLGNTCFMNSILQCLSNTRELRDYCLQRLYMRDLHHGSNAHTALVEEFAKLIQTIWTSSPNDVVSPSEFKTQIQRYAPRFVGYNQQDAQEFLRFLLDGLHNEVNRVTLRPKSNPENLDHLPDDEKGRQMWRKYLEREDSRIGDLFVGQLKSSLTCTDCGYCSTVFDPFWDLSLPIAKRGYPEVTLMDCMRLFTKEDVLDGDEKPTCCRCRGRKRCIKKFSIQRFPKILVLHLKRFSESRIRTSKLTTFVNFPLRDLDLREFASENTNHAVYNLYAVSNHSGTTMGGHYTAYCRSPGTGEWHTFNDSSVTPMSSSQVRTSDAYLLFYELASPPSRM
# Assay: qHTS Assay for Inhibitors of Ubiquitin-specific Protease USP2a Using CHOP2 as the Reporter;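 for activity change, negative = inhibition: plate controls were DMSO wells for no effect and full inhibition by NEM control for full effect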
# Settings: USP2 core, Ub-CHOP2 coupled fluorogenic reporter, 485/531; activity change, negative = inhibition: at 38.3 µM (top of the series)
# Summary of the method: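 Deubiquitinase activity read as fluorescence (485/531 nm) after Ub-CHOP2 cleavage activates the enterokinase reporter on its substrate; USP2 core 10nM, Ub-CHOP2 and substrate 25nM each, 30min compound preincubation then 60min RT; data normalized to NEM, curves fitted.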
# Potency is the fitted concentration of half-maximal effect; tags give direction and shape of the fitted curve or compound fluorescence and quenching.
SMILES,Potency,"activity change, negative = inhibition"
CCN(CC)S(=O)(=O)c1ccc(Cl)c(NC(=O)COC(=O)c2c(C)noc2C)c1,"inconclusive: 25.1 µM [falling, single point]",–
Brc1ccc(NC2=Nc3ccccc3CC2)cc1,–,inactive: 1.55%
O=C1c2cccc3c(N4CCCCC4)ccc(c23)C(=O)N1c1cccc(O)c1,"inconclusive: 10 µM [fluorescent, single point]",–
O=C(Oc1ccccc1C(=O)Nc1ccccc1)c1ccccc1Br,"inconclusive: 22.4 µM [falling, single point]",–
COc1cccc2c1C(=O)c1c(O)c3c(c(O)c1C2=O)C[C@@](O)(C(C)=O)C[C@@H]3O[C@H]1C[C@H](N)[C@H](O)[C@H](C)O1,"inconclusive: 10 µM [fluorescent, partial curve]",–
Cc1noc(C)c1S(=O)(=O)N1CCN(c2ccccc2)CC1,–,inactive: -1.51%
O=c1oc2c(O)c(O)cc3c(=O)oc4c(O)c(O)cc1c4c23,active: 1.12 µM,–
COCCCNC(=O)C(C#N)c1nc2ccccc2nc1N1CCN(Cc2ccccc2)CC1 (centres undefined),"inconclusive: 15.8 µM [fluorescent, single point]",–
Cc1c(CCC(=O)NCC(=O)O)c(=O)oc2cc3occ(-c4ccccc4)c3cc12,–,inactive: -0.506%
O=C(C[n+]1cccc(C(=O)N/N=C/c2ccc(Br)cc2)c1)c1ccccc1,"inconclusive: 22.4 µM [falling, single point]",–
CC(C)(C)NC(=O)NC(=O)CN1CCN(S(=O)(=O)c2ccc3c(c2)CCCC3)CC1,–,inactive: -0.506%
O=c1[nH]c(CSc2ncnc3sccc23)nc2cc(C(F)(F)F)ccc12,"inconclusive: 15.8 µM [fluorescent, single point]",–
CC(=O)Nc1ccc(SCC(=O)Nc2oc(C)c3c(C)n[nH]c(=O)c23)cc1,–,inactive: 1.66%
Oc1c(Br)cc(Br)cc1CNc1ccc(F)cc1,–,inactive: 0.855%
Cc1ccc(C(C(=O)NC2CCCC2)N2CCc3ccccc32)cc1 (centres undefined),"inconclusive: 5.01 µM [falling, single point]",–
CN(C)S(=O)(=O)c1cccc(NC(=S)NNC(=O)c2cc3ccccc3cc2O)c1,"inconclusive: 22.4 µM [falling, single point]",–
CN(C)CCOCCP(=O)(c1ccccc1)c1ccccc1,active: 10 µM,–
CCOc1ccc2[nH]c(=O)c(CN(Cc3nnnn3Cc3ccco3)C3CCCCC3)cc2c1,"inconclusive: 25.1 µM [falling, single point]",–
Cc1cc(-c2csc(NC(=O)c3ccc(=O)[nH]c3)n2)c(C)n1Cc1ccccc1,"inconclusive: 28.2 µM [falling, single point]",–
Cc1nn(CC(=O)Nc2ccc3c(c2)OCO3)c(C)c1Cl,–,inactive: 4.04%
Cc1cccc(N2CSC3=C(C#N)C(c4ccc(C)o4)CC(=O)N3C2)c1 (centres undefined),"inconclusive: 28.2 µM [falling, single point]",–
CCN(CC)C(=O)Cn1c(C)c(/C=C/c2cc[n+](C)cc2)c2ccccc21,"inconclusive: 12.6 µM [fluorescent, single point]",–
CCC(C)NC(=O)C1CN(S(=O)(=O)c2ccccc2)CCN1S(=O)(=O)c1ccccc1 (centres undefined),"inconclusive: 12.6 µM [falling, single point]",–

SMILES,Potency,"activity change, negative = inhibition"
O=C1/C(=C/C=C/c2ccco2)SC(=S)N1NS(=O)(=O)c1ccccc1,"inconclusive: 28.2 µM [falling, single point]",–
Cc1cc(S(=O)(=O)N2CCCC(N(C)CCc3ccccn3)C2)c(C)cc1Cl (centres undefined),–,inactive: 1.23%
COc1ccc(-c2nc(CS(=O)CC(=O)NCc3ccc(C)cc3)c(C)o2)cc1OC (centres undefined),–,inactive: -2.2%
CCc1ccc(-c2nc(CN3CCC(C(=O)N4CCN(c5ccccn5)CC4)CC3)c(C)o2)cc1,–,inactive: -0.821%
CN(C(=O)c1ccc(OC2CCN(CCc3ccccc3)CC2)cc1)C1CCOC1 (centres undefined),–,inactive: 2.3%
Cc1ccnc(SCc2ccc(C(=O)O)cc2)n1,–,inactive: 1.99%
Cc1cc(C(=O)Nc2ccccc2N2CCOCC2)c2ccccc2n1,"inconclusive: 28.2 µM [falling, single point]",–
CCN1C(=O)C(NC(C)=O)c2cc(OC)ccc21 (centres undefined),"inconclusive: 28.2 µM [falling, single point]",–
Cc1cccc(Nc2nc(N)nc(CSC(=S)N3CCOCC3)n2)c1,–,inactive: 4.71%
CC(C)(C)c1cc(=O)n(-c2ccccc2)[nH]1,–,inactive: 0.435%
O=C(N/N=C/c1ccc(F)cc1)c1cc(-c2ccco2)nc2ccccc12,"inconclusive: 22.4 µM [falling, single point]",–
COc1ccc(OC)c(/C=C2/Sc3ccccc3C2=O)c1,–,inactive: 10.2%
Cc1ccccc1NC(=O)N1CCC(C(=O)c2ccc(F)cc2)CC1,–,inactive: 1.5%
O=C(COC(=O)c1cc(-c2ccc(Cl)s2)nc2ccccc12)NCc1ccco1,"inconclusive: 28.2 µM [falling, single point]",–
Cc1nonc1CC(=O)NC1CCCc2c1cnn2-c1ccc(F)cc1F (centres undefined),–,inactive: 0.671%
COc1ccc(NC(=O)CSc2nc3sc(C)cc3c(=O)n2C)c(OC)c1,"inconclusive: 5.01 µM [falling, single point]",–
CCOc1ccc2nc(NC(=O)Nc3ccccc3)sc2c1,"inconclusive: 14.1 µM [falling, single point]",–
Cc1ccc(Cl)cc1N1CCN(C(=O)CCC(=O)O)CC1,"inconclusive: 28.2 µM [fluorescent, single point]",–
CCCCCCCCCCCCCCCC[n+]1cccc(C(=O)N(CC)CC)c1,"inconclusive: 28.2 µM [falling, single point]",–
O=S(=O)(NCCC1=CCCCC1)c1ccc(Br)cc1,–,inactive: -0.854%
O=C(CCS(=O)(=O)c1ccc(Cl)cc1)NCCN1C(=O)S/C(=C\c2ccccc2F)C1=O,–,inactive: -1.36%
O=C1NC(=S)S/C1=C\c1ccc2ccccc2c1,–,inactive: -0.089%
O=C(N/N=C/c1cccc(F)c1)c1cc(-c2ccco2)nc2ccccc12,"inconclusive: 28.2 µM [falling, single point]",–

SMILES,Potency,"activity change, negative = inhibition"
N[C@@H](Cc1cc(I)c(Oc2ccc(O)c(I)c2)c(I)c1)C(=O)O,"inconclusive: 25.1 µM [falling, single point] and inconclusive: 22.4 µM [falling, single point]",–
Cc1cc(C)cc(NC(=O)CSc2nc3c(c(=O)[nH]2)CN(Cc2ccc(F)cc2)CC3)c1,"inconclusive: 4.47 µM [falling, single point]",–
Cc1ccc(C2(C)NC(=O)N(CC(=O)c3ccc(Cl)s3)C2=O)cc1 (centres undefined),"inconclusive: 22.4 µM [falling, single point]",–
CCOc1ccc(NC(=O)c2cccc(-n3cccc3)c2)cc1S(=O)(=O)N1CCOCC1,"inconclusive: 22.4 µM [falling, single point]",–
O=C(N/N=C/c1ccc(-c2ccc(S(=O)(=O)Nc3ncccn3)cc2)o1)c1cc2ccccc2cc1O,"inconclusive: 28.2 µM [falling, single point]",–
O=C(O)/C=C/c1ccc(S(=O)(=O)Nc2ccccc2C(=O)Nc2ccc(F)cc2)cc1,"inconclusive: 5.01 µM [falling, single point]",–
O=C(Nc1ccc(N2CCCC2)cc1)C(c1ccccc1)c1ccccc1,"inconclusive: 28.2 µM [falling, single point]",–
CC(C)c1ccc(CCNC(=O)c2ccc([N+](=O)[O-])cc2)cc1,"inconclusive: 22.4 µM [falling, single point]",–
Cc1ccnc(N/C=C(\C#N)c2nc(-c3cccc(Br)c3)cs2)c1,"inconclusive: 11.2 µM [fluorescent, single point]",–
CS(=O)(=O)Nc1nc2n(n1)C(c1ccccc1)C=C(c1ccc(Br)cc1)N2 (centres undefined),"inconclusive: 15.8 µM [fluorescent, single point]",–
O=C(NC1CCCCC1)C(c1ccco1)N(Cc1ccco1)C(=O)c1ccco1 (centres undefined),"inconclusive: 5.01 µM [falling, single point]",–
CC1=C[C@@H](C)[C@@H](c2ccc(C(F)(F)F)cc2)OC1=O,–,inactive: -8.72%
Cc1cc(O)c(C=O)c2c1C(=O)Oc1c(CO)c(O)c3c(c1O2)C(O)OC3=O (centres undefined),"inconclusive: 25.1 µM [falling, single point]",–
OCCN(CCO)c1nc(N2CCCCC2)c2nc(N(CCO)CCO)nc(N3CCCCC3)c2n1,"inconclusive: 11.2 µM [fluorescent, partial curve]",–
Cc1c(N=C2N=C(NC(=O)c3cccs3)c3ccccc32)c(=O)n(-c2ccccc2)n1C,–,inactive: 0.118%
O=c1c2c3nc4ccccc4nc3n(Cc3ccccc3)c2ncn1Cc1ccco1,"inconclusive: 22.4 µM [falling, single point]",–
NS(=O)(=O)c1ccc(NC(=O)/C=C/c2cn(-c3ccccc3)nc2-c2cccc(Cl)c2)cc1,"inconclusive: 12.6 µM [falling, single point]",–
Cc1ccc(C(=O)NNc2c3ccccc3nc3ccccc23)cc1,"inconclusive: 25.1 µM [falling, single point]",–
O=C1OCC2OC(O)C(O)C(O)C2OC(=O)c2cc(O)c(O)c(O)c2-c2c(O)c(O)c3oc(=O)c4c(c(O)c(O)c5oc(=O)c2c3c54)-c2c1cc(O)c(O)c2O (centres undefined),active: 0.501 µM,–
COc1cccc(N2C(=O)C3CCCN3C2c2ccc(N(C)C)cc2)c1 (centres undefined),"inconclusive: 20 µM [falling, single point]",–
CCCCNC(=O)Nc1ccccc1C(=O)NCc1ccco1,"inconclusive: 28.2 µM [falling, single point]",–
CCn1c2ccccc2c2nc3ccccc3nc21,"inconclusive: 28.2 µM [falling, single point]",–
O=C(NCCS(=O)(=O)c1ccc(Br)cc1)c1ccc(F)cc1,–,inactive: 0.961%
